The results in this text go back to patent publication US5475132A, “Antifungal agents based on amides containing a phenyl group” (Rhone-Poulenc Agrochimie, priority 1988, dated 1995).

As a reminder, the inhibition is the share of the control response that was lost under treatment.

Molecules are shown by their SMILES. Where only a bound is given, the exact number is not on record here.

In the assay the test system is Plasmopara viticola. As to the kind of experiment: Example B2: treatment of vine mildew (Plasmopara viticola) on vine cuttings. To be noted: 192 h, 330 ppm (0.33 g/l), vine cuttings, 8 days after infection, read-out: inhibition of the development of the mould. As to the method: Treatment of vine mildew (Plasmopara viticola)
Vine (Vitis vinifera) cuttings of the Chardonnay variety are cultivated in pots. When these plants are 2 months old (8 to 10 leaf stage, height 20 to 30 cm) they are treated in the same manner as in Example B1.
After drying for 24 hours, each plant is infected by spraying with an aqueous suspension of spores of Plasmopara viticola which is responsible for vine mildew, at the rate of about 5 ml/plant (that is about 100,000 spores per plant).
After this infection, the vine plants are incubated for two days at about 18° C. in a saturated atmosphere, then for five days at about 20°-22° C. and 90-100% relative humidity.
Eight days after infection, the results obtained in the case of the plants treated with the active material to be tested are compared with those obtained in the case of plants used as controls.
`C=C(C)c1ccc2sc(C(=O)N3CCOCC3)c(-c3ccc(OC)c(OC)c3)c2c1` [Compound 105, 2-(4-Morpholinocarbonyl)-5-(propen-2-yl)-3-(3,4-dimethoxyphenyl)benzothiophene]: the inhibition at 330 ppm was not below 80%.

In the case of `CCN(C)C(=O)c1ccc(-c2ccc(Br)cc2)nc1-c1ccc(OC)c(OC)c1` [Compound 390], the inhibition at 330 ppm is not below 80%.

In the case of `COc1ccc(-c2nc(-c3ccc(Cl)cc3)ccc2C(=O)N(C)CC#N)cc1OC` [Compound 363], the inhibition at 330 ppm is not below 80%.

`COc1ccc(-c2nc(-c3ccc(Br)cc3)ccc2C(=O)N(C)CCOC(C)=O)cc1OC` [Compound 366]: the inhibition at 330 ppm was not below 80%.

`COc1ccc(-c2nc(Oc3ccc(Br)cc3)ncc2C(=O)N2CCOCC2)cc1OC` [Compound 438]: the inhibition at 330 ppm is not below 80%.

`COc1ccc(-c2nc(-c3ccsc3)ccc2C(=O)N2CCOCC2)cc1OC` [Compound 3112]: the inhibition at 330 ppm is not below 80%.

In the case of `COCCN(C)C(=O)c1ccc(Br)cc1-c1ccc(OC)c(OC)c1` [Compound 204], the inhibition at 330 ppm was not below 80%.

As for `CCN(CC)C(=O)c1cnn(-c2ccc(Cl)cc2)c1-c1ccc(OC)c(OC)c1` [Compound 612, 4-(N,N-diethylaminocarbonyl)-2-(4-chlorophenyl)-3-(3,4-dimethoxyphenyl)pyrazole], the inhibition at 330 ppm was not below 80%.

As for `CCCCN(C)C(=O)c1ccc(-c2ccccc2)nc1-c1ccc(OC)c(OC)c1` [Compound 361], the inhibition at 330 ppm was not below 80%.

As for `COc1ccc(-c2c(C(=O)N3CCCCC3CO)sc3ccccc23)cc1OC` (stereo not shown) [Compound 157], the inhibition at 330 ppm was not below 80%.

Turning to `CCN(C)C(=O)c1ccc(-c2ccc(C#N)cc2)nc1-c1ccc(OC)c(OC)c1` [Compound 399], the inhibition at 330 ppm is not below 80%.

With `COc1ccc(-c2c(C(=O)N3CCOCC3)sc3ccc(I)cc23)cc1OC` [Compound 101, 2-(4-morpholinocarbonyl)-5-iodo-3-(3,4-dimethoxyphenyl)benzothiophene], the inhibition at 330 ppm was not below 80%.

With `COc1ccc(-c2c(C(=O)N3CCOCC3)sc3ccc(NC(=O)C(F)(F)F)cc23)cc1OC` [Compound 116], the inhibition at 330 ppm is not below 80%.

As to `C=C(C)c1ccc(C(=O)N(C)CCOC)c(-c2ccc(OC)c(OC)c2)c1` [Compound 213], the inhibition at 330 ppm is not below 80%.

Regarding `COc1ccc(-c2c(C(=O)N3CCOCC3)cnn2Cc2ccccc2)cc1OC` [Compound 626], the inhibition at 330 ppm is not below 80%.

For `COc1ccc(-c2c(C(=O)N3CCOCC3)sc3ccc(-c4ccsc4)cc23)cc1OC` [Compound 134], the inhibition at 330 ppm is not below 80%.

Regarding `COc1ccc(-c2nc(-c3ccc(Cl)cc3)ccc2C(=O)N2CCCCC2)cc1OC` [Compound 376], the inhibition at 330 ppm was not below 80%.

As to `COCCN(CCOC)C(=O)c1sc2ccc(F)cc2c1-c1ccc(OC)c(OC)c1` [Compound 170], the inhibition at 330 ppm is not below 80%.

For `COc1ccc(-c2cc(-c3ccc4c(c3)OCO4)ccc2C(=O)N2CCOCC2)cc1OC` [Compound 239], the inhibition at 330 ppm is not below 80%.
